# Data: PubChem BioAssay AID504332 (National Center for Advancing Translational Sciences (NCATS), 2011)
# The campaign covered roughly 350,000 compounds. About 31,000 (8.9%) were called active. Inconclusive means that the source gave no clear call. Such entries were picked first, then a sample of the others. Calls come from the whole dose curve; as a rule, active = well fitted inhibition curve with a large enough effect; inconclusive = small, poorly fitted or top-dose-only effect; inactive = no such curve, though single readings can be large or run the other way. Where the call is inconclusive, the potency comes from a doubtful curve fit.
# Target: Histone-lysine N-methyltransferase EHMT2 (Homo sapiens) (UniProt Q96KQ7)
# Assay: qHTS Assay for Inhibitors of Histone Lysine Methyltransferase G9a; note: nearly all actives have a fitted effect of over 75% in size
# Details: G9a H3K9 monomethylation, AlphaScreen, 2 h; activity, negative = inhibition: at 59 µM (top of the series) unless noted
# Procedure, shortened: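 G9a (20 nM) was preincubated 15 min with compound, then reacted 2 h at room temperature with 500 nM biotin-H3K9 peptide and 20 µM SAM. Monomethyl-H3K9 detected by AlphaScreen using anti-H3K9me1 antibody.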
# % is set by controls: 0 for no effect and ±100 for the full control effect; potency is the fitted concentration of half-maximal effect; tags give direction and shape of the fitted curve.
# UniProt Q96KQ7, sequence (Q96KQ7 whole entry, looked up): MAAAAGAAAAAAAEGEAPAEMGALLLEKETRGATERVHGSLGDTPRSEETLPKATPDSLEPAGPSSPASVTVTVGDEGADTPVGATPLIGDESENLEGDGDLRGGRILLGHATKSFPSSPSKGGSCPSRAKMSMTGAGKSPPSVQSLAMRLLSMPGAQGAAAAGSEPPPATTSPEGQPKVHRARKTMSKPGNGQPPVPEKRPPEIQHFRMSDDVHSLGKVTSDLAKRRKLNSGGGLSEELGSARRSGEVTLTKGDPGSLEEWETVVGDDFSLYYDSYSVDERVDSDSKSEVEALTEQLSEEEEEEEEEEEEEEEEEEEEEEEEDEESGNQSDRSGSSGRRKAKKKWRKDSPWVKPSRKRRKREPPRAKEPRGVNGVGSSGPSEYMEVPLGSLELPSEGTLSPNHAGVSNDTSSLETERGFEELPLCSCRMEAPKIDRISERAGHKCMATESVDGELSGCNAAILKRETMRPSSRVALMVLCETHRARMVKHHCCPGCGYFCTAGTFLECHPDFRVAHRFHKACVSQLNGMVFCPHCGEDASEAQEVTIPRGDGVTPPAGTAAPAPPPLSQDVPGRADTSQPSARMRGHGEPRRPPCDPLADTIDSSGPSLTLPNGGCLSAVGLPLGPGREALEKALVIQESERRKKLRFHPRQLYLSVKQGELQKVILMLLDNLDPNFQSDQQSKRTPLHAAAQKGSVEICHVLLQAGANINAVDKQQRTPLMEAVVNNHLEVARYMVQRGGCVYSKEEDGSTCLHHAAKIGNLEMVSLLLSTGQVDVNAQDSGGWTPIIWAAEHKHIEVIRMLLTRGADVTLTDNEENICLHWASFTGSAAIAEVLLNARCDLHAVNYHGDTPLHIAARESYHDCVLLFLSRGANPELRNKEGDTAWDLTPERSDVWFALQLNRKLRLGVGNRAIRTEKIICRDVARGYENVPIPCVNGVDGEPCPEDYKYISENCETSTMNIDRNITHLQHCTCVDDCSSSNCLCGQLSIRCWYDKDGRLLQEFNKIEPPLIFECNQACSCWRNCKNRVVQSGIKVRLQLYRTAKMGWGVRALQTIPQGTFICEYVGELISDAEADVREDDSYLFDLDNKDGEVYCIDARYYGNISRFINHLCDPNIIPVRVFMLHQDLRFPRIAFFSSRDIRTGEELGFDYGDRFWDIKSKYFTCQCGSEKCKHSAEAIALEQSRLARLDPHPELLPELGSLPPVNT
Structure (SMILES),Potency,"activity, negative = inhibition"
O=C(O)CC1S/C(=N/N=C/c2ccccn2)NC1=O (stereo not given),inactive,
N#Cc1nc(COc2ccc(-c3ccccc3)cc2)oc1NCCCN1CCOCC1,"inconclusive: 39.8 µM [inhibitor, single point]",
COc1cccc(Nc2nc(NCCO)c3ccccc3n2)c1,"inconclusive: 28.2 µM [inhibitor, single point]",
CCCc1nc2ccccc2c(C(=O)OCC(=O)NCc2ccco2)c1CC,"inconclusive: 89.1 µM [inhibitor, single point]",
COc1ccc(NS(=O)(=O)c2ccc(C)c(C(=O)N3CCC3)c2)cc1,"inconclusive: 79.4 µM [inhibitor, partial curve]",
O=C(NCc1ccccc1)c1nc[nH]c1C(=O)NCc1ccccc1,active: 50.1 µM,
O=C(CN1CCN(Cc2ccccc2)CC1)c1ccccc1,active: 79.4 µM,
O=C(COC(=O)c1ccc(CN2CCCC2=O)cc1)Nc1ccc(F)cc1,,inactive: 20.2% [at 12.7 µM]
COC(=O)C1[C@H]2SC(C)(C)C(C(=O)OC)N2C(=O)N1Cc1nc2ccccc2s1 (stereo not given in full),"inconclusive: 89.1 µM [inhibitor, single point]",
Cc1ccc(C)c(N2C(=O)CN=C2Nc2ccccc2Cl)c1,,inconclusive: -61.6% [inhibitor]
COCCn1c(=NC(=O)c2ccc(S(=O)(=O)N3CCc4ccccc4C3)cc2)sc2cc(S(N)(=O)=O)ccc21,"inconclusive: 89.1 µM [inhibitor, single point]",
Cc1cccc(NC2=NCC(=O)N2Cc2ccccc2)c1,"inconclusive: 3.16 µM [inhibitor, partial curve, poor fit]",
Cc1nc(N2CCN(S(=O)(=O)c3ccccc3)CC2)c2cc(-c3ccccc3)sc2n1,"inconclusive: 22.4 µM [inhibitor, partial curve, poor fit]",
CC(=O)Oc1ccc(-c2ccc(C(=O)OCC(=O)N(C)CC(=O)Nc3ccccc3Cl)cc2)cc1,"inconclusive: 7.94 µM [inhibitor, partial curve, poor fit]",
CN(C)S(=O)(=O)N1CCC(Oc2cccc(C(=O)NC3CCCCC3)c2)CC1,inactive,
CC1=NN(C(C#N)c2c(C)nn(Cc3ccccc3)c2C)C(C)(C)C1 (stereo not given),active: 35.5 µM,
COC(=O)[C@H](C)NC(=O)NCc1ccccc1,"inconclusive: 79.4 µM [inhibitor, single point]",
O=C(CSCc1nc2ccccc2[nH]1)N1CCN(c2ccc(F)cc2)CC1,"inconclusive: 50.1 µM [inhibitor, partial curve]",
CSc1ccc(S(=O)(=O)N2CCC(C(=O)NCc3ccccn3)CC2)cc1,"inconclusive: 89.1 µM [inhibitor, single point]",
CC(NC(=O)c1ccc(N(C)C)cc1)C1CC2CCC1C2 (stereo not given),inactive,
S=c1[nH]nc(-c2ccc(Cl)cc2)n1Cc1ccccc1,active: 1.41 µM,
C=CCSC1=C(C#N)C(c2ccccc2)CC(=O)N1 (stereo not given),active: 50.1 µM,
COC(=O)c1ccc2c(=O)[nH]c(COC(=O)c3c(-c4ccccc4Cl)noc3C)nc2c1,"inconclusive: 10 µM [inhibitor, partial curve, poor fit]",

Structure (SMILES),Potency,"activity, negative = inhibition"
CCn1cc(C(=O)O)c(=O)c2cc(F)c(N3CCN(C(=S)NC(=O)c4ccccc4F)CC3)cc21,"inconclusive: 44.7 µM [inhibitor, partial curve, poor fit]",
CC(=O)C1=C(O)C(=O)N(Cc2cccnc2)C1c1ccc(C)cc1 (stereo not given),"inconclusive: 39.8 µM [inhibitor, single point]",
Cc1cc(=O)[nH]c(N/N=C/c2cc(C)n(-c3ccccc3)c2C)n1,"inconclusive: 89.1 µM [inhibitor, single point]",
O=C(c1ccc[nH]c1=S)N1CCN(S(=O)(=O)c2ccc(Br)cc2Cl)CC1,active: 8.91 µM,
O=Cc1cc(N=Nc2cccc(C(=O)O)c2)ccc1O,"inconclusive: 56.2 µM [inhibitor, single point]",
CCOc1ccc(Nc2ncnc3c2cnn3-c2ccccc2)cc1,"inconclusive: 39.8 µM [inhibitor, partial curve, poor fit]",
Cn1c(=O)c2c(SCC(=O)NCC3CCCO3)nc(-c3cccc(F)c3)nc2n(C)c1=O (stereo not given),inactive,
CC(C(=O)NCc1ccccc1)N1C(=O)CN(C)C(=O)c2ccccc21 (stereo not given),"inconclusive: 20 µM [inhibitor, single point]",
O=C(NC1=NCCS1)c1cccc2ccccc12,"inconclusive: 31.6 µM [inhibitor, single point]",
CC(=O)NN=C1CCC(c2ccccc2)CC1 (stereo not given),inactive,
Cc1nc(-c2ccc(S(=O)(=O)NCc3ccccn3)s2)cs1,"inconclusive: 50.1 µM [inhibitor, partial curve, poor fit]",
NNC(=O)c1ccc2[nH]c3c(c2c1)CCCC3,"inconclusive: 35.5 µM [inhibitor, partial curve]",
Cc1cccc(Cn2cc(S(=O)(=O)c3ccc(Cl)cc3)c(=O)c3cc4c(cc32)OCO4)c1,inactive,
Cc1ccccc1-n1c(SCC(=O)Nc2ccc3c(c2)OCO3)nnc1-c1ccccn1,"inconclusive: 20 µM [inhibitor, single point]",
S=c1[nH]nc(C2CCCCC2)n1/N=C/c1ccccn1,"inconclusive: 1.78 µM [inhibitor, full curve, poor fit]",
CC(C)(C)c1ccc(S(=O)(=O)NC(Cc2ccccc2)C(=O)O)cc1 (stereo not given),active: 79.4 µM,
C=CCn1c(SCc2csc(C)n2)nc2sc3c(c2c1=O)CCC(C)C3 (stereo not given),inactive,
C#CCOC(=O)C[N+](C)(C)CC=C,"inconclusive: 50.1 µM [inhibitor, partial curve, poor fit]",
COc1cccc(NC(=O)C(=O)NCCc2csc(-c3ccc(C)cc3)n2)c1,inactive,
CCN(C(=O)CCNC(=O)Cn1cnc2ccccc2c1=O)c1cccc(Cl)c1,inactive,
O=C(O)COc1ccccc1/C=N/NC(=O)c1cc2ccccc2cc1O,"inconclusive: 44.7 µM [inhibitor, partial curve]",
CC(=O)N1CC2(NC(=O)c3ccccc3N2)c2ccccc21 (stereo not given),"inconclusive: 79.4 µM [inhibitor, partial curve, poor fit]",
